Data taken from PubChem BioAssay AID485294 (National Center for Advancing Translational Sciences (NCATS), 2010).
About 150 (0.041%) of roughly 370,000 compounds were called active. Inconclusive results, whose numbers are uncertain, are shown with a selection of clear calls. Calls follow the shape of the dose curve; as a rule, active = well fitted inhibition curve with a large enough effect; inconclusive = small, poorly fitted or top-dose-only effect; inactive = flat fitted curve, though single readings scatter. No potency is given beside an inconclusive call; the fits are too rough.

biological target: Beta-lactamase (Escherichia coli (strain K12)) (UniProt P00811); assay: qHTS Inhibitors of AmpC Beta-Lactamase (assay with detergent); details: AmpC hydrolysis of nitrocefin, absorbance 480 nm, 0.01% Triton; series mostly up to 114 µM; also: nearly all actives have a fitted effect of over 25% in size
Outline: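 AmpC (5.3 nM in the dispensed reagent) in 20 mM phosphate pH 7.0 with 0.01% (detergent screen) or 0.0001% Triton X-100 was preincubated with compounds for 15 min at room temperature. Nitrocefin was then added from an 800 uM solution, and hydrolysis was followed at 480 nm.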
Potency is read from the fitted curve at half-maximal effect; tags tell the direction and shape of the fitted curve.

Sequence of UniProt P00811 (P00811 whole entry, looked up): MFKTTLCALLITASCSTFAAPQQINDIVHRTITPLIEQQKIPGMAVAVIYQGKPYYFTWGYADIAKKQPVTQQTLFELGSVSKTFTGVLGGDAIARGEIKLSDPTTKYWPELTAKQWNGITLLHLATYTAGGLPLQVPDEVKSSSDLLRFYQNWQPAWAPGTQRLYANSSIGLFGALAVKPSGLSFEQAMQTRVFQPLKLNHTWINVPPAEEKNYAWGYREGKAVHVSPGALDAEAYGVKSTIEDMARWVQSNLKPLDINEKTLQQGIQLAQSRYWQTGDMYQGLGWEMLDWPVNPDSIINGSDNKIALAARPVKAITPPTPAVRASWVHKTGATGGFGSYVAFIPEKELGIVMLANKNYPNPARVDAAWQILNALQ

SMILES | Potency
COc1cccc(C2C=C(c3cccs3)Nc3ncnn32)c1OC (stereo unspecified) | inconclusive [inhibitor, partial curve, poor fit]
O=C(O)C1CCCCC1C(=O)NCCCCc1ccccc1 (stereo unspecified) | inconclusive [inhibitor, full curve, poor fit]
Cc1ccccc1NS(=O)(=O)c1ccc2oc(=O)ccc2c1 | inconclusive [inhibitor, partial curve, poor fit]
COc1ccc(S(=O)(=O)Nc2ccccc2C(=O)N2CCOCC2)cc1Br | inconclusive [inhibitor, full curve]
CCN1CCOC(=O)C1CC(=O)Nc1cc(Cl)ccc1OC (stereo unspecified) | inactive
COc1cc(/C=N/NC(=O)Cc2cccs2)c([N+](=O)[O-])cc1OC | inconclusive [inhibitor, partial curve, poor fit]
CCOC(=O)Cc1csc(NC(=S)NC(=O)c2ccccc2C)n1 | inconclusive [inhibitor, full curve, poor fit]
O=c1oc2ccc3ccccc3c2cc1-c1nnc(Nc2cccc(F)c2)s1 | inactive
COc1cc(OC)cc(OCC(O)Cn2cnc3cc(C)c(C)cc32)c1 (stereo unspecified) | inconclusive [inhibitor, full curve, poor fit]
OC12ONC(c3ccccn3)C1N1CCC2CC1 (stereo unspecified) | inconclusive [inhibitor, partial curve]
Cc1cc(C)cc(NC(=O)COC(=O)CCc2ccc(S(=O)(=O)N3CCOCC3)cc2)c1 | inconclusive [inhibitor, partial curve]
COc1cccc(CN(C)C(=O)COc2ccc(C(=O)c3ccc(Cl)cc3)cc2)c1OC | inconclusive [inhibitor, full curve, poor fit]
CC(=O)NNc1nc(-c2ccccc2)cs1 | inactive
CCOC(=O)c1c(C)[nH]c(C(=O)OCC(=O)N(C)C2CCS(=O)(=O)C2)c1C (stereo unspecified) | inactive
CCN1CCN(/C=N/c2nc(C)cs2)CC1 | inconclusive [inhibitor, partial curve, poor fit]
S=c1nc(C2CC2)[nH]c2ccccc12 | inconclusive [inhibitor, partial curve, poor fit]
COc1ccccc1-c1nc(C#N)c(N2CCN(c3cccc(Cl)c3)CC2)o1 | inconclusive [inhibitor, partial curve, poor fit]
CC1CCN(CC(=O)N2c3ccccc3CCc3ccccc32)CC1 | inactive
Cc1cc(Br)cc2c1NC(=O)C2(c1c(C)n(C)n(-c2ccccc2)c1=O)c1c(C)n(C)n(-c2ccccc2)c1=O | inactive
O=S(=O)(c1ccc(S(=O)(=O)N2CCN(C/C=C/c3ccccc3)CC2)cc1)N1CCCC1 | inconclusive [inhibitor, full curve, poor fit]
COC(=O)Cc1nc2ccccc2[nH]1 | inconclusive [inhibitor, full curve]
COC(=O)c1ccc(OCC2NCCc3cc(OC)c(OC)cc32)cc1 (stereo unspecified) | inconclusive [inhibitor, single point]
COc1cccc(-c2cc(C(=O)Nc3cnn(Cc4ccc(F)cc4)c3)no2)c1 | inactive
CC(C)c1ccccc1NC(=O)COC(=O)c1c2c(nc3ccccc13)CCN(Cc1ccccc1)C2 | inactive

SMILES | Potency
Nc1ccccc1C(=O)NNc1c2ccccc2nc2ccccc12 | inactive
Cc1ccc(C(=O)CSc2nnc3ccc4ccccc4n23)cc1 | inactive
COc1ccc(C(=O)NNC(=O)c2cc(C)[nH]n2)cc1 | inconclusive [inhibitor, single point]
COc1cccc(CNC(=O)c2ccc(CS(=O)Cc3ccc(Cl)cc3)o2)c1 (stereo unspecified) | inactive
CC(C)CSc1nc2c(=O)[nH][nH]c(=O)c2n1Cc1ccccc1 | inconclusive [inhibitor, single point]
COc1ccc(/C=N/NC(=O)c2cc(-c3ccccc3)nc3ccccc23)c(OC)c1 | inactive
COC(=O)[C@@]12CCCN1[C@H](c1ccc(-c3cccc(Cl)c3)cc1)[C@H]1C(=O)N(C)C(=O)[C@H]12 | inconclusive [inhibitor, single point]
Nc1ncnc2c1ncn2C1OC(CO)C(O)C1O (stereo unspecified) | inconclusive [inhibitor, single point]
C=CCn1c(C)cc(C2=NNC(=Nc3ccc(C)cc3)SC2)c1C | inactive
CCOC(=O)c1c(S(=O)(=O)NCCc2ccccc2)c(C)n(C)c1C | inconclusive [inhibitor, full curve, poor fit]
O=C(NC1CCCCC1)/C(=C/c1ccc(Cl)cc1)NC(=O)c1ccccc1 | inactive
COC(=O)C1=C(C)N(CCC2=CCCCC2)C(=O)C1 | inactive
CCN(CC(=O)Nc1c(F)cccc1F)C(=O)c1ccc(-c2ccc(C(C)=O)cc2)o1 | inconclusive [inhibitor, full curve, poor fit]
Cc1ccccc1/C=N/NC(=O)Cn1cnc([N+](=O)[O-])n1 | inactive
CCOCCSc1nnc2nc(C)cc(C)n12 | inconclusive [inhibitor, full curve, poor fit]
CCOCCn1ccc2c(OCC(=O)NCc3ccccc3)cccc2c1=O | inconclusive [inhibitor, full curve, poor fit]
CSc1ccc(CCNC(=O)c2nn(C)c3c2CS(=O)(=O)c2ccccc2-3)cc1 | inconclusive [inhibitor, full curve, poor fit]
CCOc1ccc(=O)n(-c2ccccc2)n1 | inconclusive [inhibitor, single point]
CCCc1nnc(NC(=O)CN2CCOCC2)s1 | inconclusive [inhibitor, full curve]
OC[C@@H](O)[C@@H](O)CO | inconclusive [inhibitor, full curve]
CCN(CC)C(=O)c1ccccc1NC(=O)c1cccc(S(=O)(=O)N2CCC(C)CC2)c1 | inactive
COc1cccc2cccc(/C=N/n3cnnc3)c12 | inconclusive [inhibitor, full curve, poor fit]
O=[N+]([O-])c1cnc(Sc2ccncn2)s1 | inconclusive [inhibitor, single point]
CCOC(=O)Cc1csc(NC(=O)c2ccc(Cl)s2)n1 | inconclusive [inhibitor, full curve, poor fit]

SMILES | Potency
O=C(/C=C/c1ccc(Br)cc1)NCCCn1ccnc1 | inconclusive [inhibitor, full curve, poor fit]
Cn1c(CN2CCCCC2)nc2cc(NC(=O)c3ccc(Cl)cc3)ccc21 | inactive
c1cc2c(cc1-c1cnc3n1CCC3)OCCO2 | inconclusive [inhibitor, full curve, poor fit]
Cc1ccc2[nH]c(=O)c(CN(Cc3cccnc3)C(=O)c3ccncc3)cc2c1 | inconclusive [inhibitor, full curve, poor fit]
CCOC(=O)CSc1nc2ccccc2n1CC(=O)NC(C)(C)C | inconclusive [inhibitor, single point]
O=C(Nc1ccccc1)Nc1nc(-c2ccc(F)c(F)c2)cs1 | inactive
S=C(NNC(=S)Nc1ccccc1)Nc1ccccc1 | inactive
O=C(NCc1ccccn1)C1CCCN(S(=O)(=O)c2ccccc2)C1 (stereo unspecified) | inconclusive [inhibitor, full curve]
COc1ccccc1-n1c(CCn2nc(C)c(Br)c2C)n[nH]c1=S | inactive
CCOc1ccccc1NC(=O)N1CCC(c2nc3ccc(C)cc3[nH]2)CC1 | inconclusive [inhibitor, full curve, poor fit]
COc1ccccc1C(=O)C1CCCN(C(=O)c2ccccc2C(C)=O)C1 (stereo unspecified) | inconclusive [inhibitor, partial curve]
Cn1c(=O)c(C(=O)CN2CC(=O)Nc3ccccc32)c(N)n(Cc2ccccc2)c1=O | inconclusive [inhibitor, full curve, poor fit]
COc1ccc(Br)cc1CNC(=O)c1ccc(-n2c(C)cc3c2CCC(C)C3)cc1 (stereo unspecified) | inactive
CCn1c(CCCNC(=O)c2cccs2)nc2ccccc21 | inconclusive [inhibitor, full curve]
CCn1nc(C)c(CN2CCC(n3nccc3NC(=O)c3ccccc3OC)CC2)c1C | inconclusive [inhibitor, partial curve, poor fit]
CCOC(=O)c1cncc(C(=O)O)c1 | inconclusive [inhibitor, partial curve]
CCOC(=O)c1ccc(CSc2ncn[nH]2)o1 | inconclusive [inhibitor, partial curve, poor fit]
Cc1nc2ccc(NC(=O)CSc3nnc(C)s3)cc2[nH]1 | inconclusive [inhibitor, single point]
O=C(OCc1nnc(-c2ccccc2)o1)C1CC(=O)N(Cc2ccco2)C1 (stereo unspecified) | inactive
COc1ccc(S(=O)(=O)N2N=C(c3ccc(NS(C)(=O)=O)cc3)CC2c2ccco2)cc1 (stereo unspecified) | inactive
COCC(C)n1c(COc2ccccc2F)nnc1SCc1c(C)noc1C (stereo unspecified) | inconclusive [inhibitor, partial curve]
O=C(Nc1cccc(O)c1)c1cccc(NC(=O)c2cccs2)c1 | inconclusive [inhibitor, full curve]
CCCc1ccc2oc(C(=O)N3CCCC3)c(C)c2c1 | inactive
